# According to publication PMC4336329 (PLoS ONE, 2015):
# Screen size: about 310,000 compounds; about 14,000 (4.5%) showed an effect of 50% or more. The effect is printed as a negative number. The list shows a part of the results.
# Biological target: human ether-à-go-go-related gene (hERG) potassium channel (human, UniProt Q12809)
# Experiment: primary screen, population patch clamp on CHO cells stably expressing hERG
# 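Further: peak tail current of the secondary pulse compared with the same well before compound.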
# human ether-à-go-go-related gene (hERG) potassium channel, sequence (Q12809 whole entry, looked up): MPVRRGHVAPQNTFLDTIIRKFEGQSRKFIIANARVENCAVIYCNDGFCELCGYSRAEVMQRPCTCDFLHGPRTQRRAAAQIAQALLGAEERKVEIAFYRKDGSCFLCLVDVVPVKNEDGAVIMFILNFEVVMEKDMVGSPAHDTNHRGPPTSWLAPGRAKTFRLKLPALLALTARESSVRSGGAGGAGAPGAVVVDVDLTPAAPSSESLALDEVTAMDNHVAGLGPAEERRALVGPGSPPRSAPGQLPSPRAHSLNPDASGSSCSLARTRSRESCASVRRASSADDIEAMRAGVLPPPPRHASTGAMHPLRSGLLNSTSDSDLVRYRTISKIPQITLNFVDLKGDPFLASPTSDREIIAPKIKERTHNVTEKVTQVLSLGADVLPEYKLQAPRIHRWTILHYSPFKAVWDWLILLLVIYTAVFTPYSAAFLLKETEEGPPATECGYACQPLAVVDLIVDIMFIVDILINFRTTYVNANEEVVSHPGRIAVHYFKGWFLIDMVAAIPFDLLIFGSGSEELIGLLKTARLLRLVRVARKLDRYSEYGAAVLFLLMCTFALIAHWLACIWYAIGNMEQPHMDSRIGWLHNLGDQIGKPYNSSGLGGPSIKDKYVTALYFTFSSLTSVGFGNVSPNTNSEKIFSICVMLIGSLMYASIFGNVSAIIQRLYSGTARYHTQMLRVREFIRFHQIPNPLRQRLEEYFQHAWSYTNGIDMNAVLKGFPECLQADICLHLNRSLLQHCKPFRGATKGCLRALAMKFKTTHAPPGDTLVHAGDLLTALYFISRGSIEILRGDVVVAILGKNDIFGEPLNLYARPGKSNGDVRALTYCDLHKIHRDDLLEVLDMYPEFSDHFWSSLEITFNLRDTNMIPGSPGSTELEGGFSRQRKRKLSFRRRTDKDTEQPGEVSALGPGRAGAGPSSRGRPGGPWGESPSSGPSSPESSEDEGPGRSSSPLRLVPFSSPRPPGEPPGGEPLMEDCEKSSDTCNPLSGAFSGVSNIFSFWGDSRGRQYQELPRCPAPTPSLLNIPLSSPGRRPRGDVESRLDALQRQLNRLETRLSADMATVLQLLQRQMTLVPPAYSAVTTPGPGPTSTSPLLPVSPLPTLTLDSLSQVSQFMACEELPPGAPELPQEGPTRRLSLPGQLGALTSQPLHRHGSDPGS
row,Compound,"hERG current change (%, negative = inhibition) at 10uM"
1,CC(=O)Nc1ccc(S(=O)(=O)N(C)CC(=O)Nc2cccc(S(=O)(=O)N3CCCC3)c2)cc1,-8.1%
2,O=C(NCCCN1CCOCC1)c1c(F)cccc1F,-0.65%
3,Cn1c(SCC(=O)N2CCN(S(=O)(=O)c3ccc(Cl)cc3)CC2)nc2ccccc21,-32.3%
4,C=CCSc1nnc(NC(=O)Cn2cnc3c2c(=O)n(C)c(=O)n3C)s1,19%
5,COc1ccc(NC(=O)Cc2nnc(SCC(=O)c3ccc(F)cc3)n2C)cc1,14%
6,Cc1csc2ncc(C(=O)N3CCc4ccccc43)c(=O)n12,15.1%
7,COc1cccc(-n2c(=O)[nH]cc(C(=O)Nc3ccc(NC(C)=O)cc3)c2=O)c1,5.09%
8,CCOc1ccc(C(=O)CC(C(=O)O)N2CCN(Cc3ccccc3)CC2)cc1 (centres unmarked),11%
9,O=C(O)/C=C/c1ccc([N+](=O)[O-])o1,22.2%
10,COC(=O)Cn1cc(C(=O)OC)cc(Br)c1=O,6.25%
11,Cc1csc(SCC(=O)Nc2cccc(S(=O)(=O)N3CCCC3)c2)n1,-25%
12,Clc1ccc(/C=N/NC2=Nc3cccc4cccc2c34)cc1,0.137%
13,CN(C)S(=O)(=O)N1CCN(c2ccc(Cl)cc2)CC1,-14.4%
14,Cc1cc(C)nc(NC(=S)Nc2cccc(Cl)c2Cl)c1,33%
15,CCc1ccccc1N1C(=O)C2CC(C)=C(C)CC2C1=O (centres unmarked),17.8%
16,CCCn1nnnc1NCc1ccc(N(C)C)cc1,1.95%
17,CCC(C)N(C(=O)COC(=O)c1[nH]c(C)c(C(C)=O)c1C)C1CCS(=O)(=O)C1 (centres unmarked),-1.68%
18,COc1ccc(S(=O)(=O)N2CCOCC2)cc1NC(=O)c1ccc(OCC(C)C)c(OC)c1,-29.4%
19,Cc1cc(C)cc(C(=O)OCC(=O)N2CCCC2)c1,9.79%
20,O=c1[nH]c2ccc(S(=O)(=O)N3CCCCC3)cc2o1,8.95%
21,O=C(N/N=C\c1cccnc1)c1ccc(Cl)s1,6.85%
22,Cc1sc2nc(C3CC3)nc(N3CCN(S(=O)(=O)c4ccc(F)cc4)CC3)c2c1C,-0.18%
23,CCC1=C(OC(=O)N(CC)CC)N2C(=O)OC(=NCC3CC3)[C@]2(Cc2ccccc2)[C@H]2C1=CC[C@H]1C(=O)N(CC(=O)OC)C(=O)[C@H]12,-10.3%

row,Compound,"hERG current change (%, negative = inhibition) at 10uM"
1,O=C(O)C(=O)/C(=C\c1ccc(Cl)cc1)c1ccc2ccccc2n1,-10.2%
2,CC1CN(C(=O)c2ccc3c(c2)OCO3)CC(C)O1 (centres unmarked),-8.76%
3,COc1cc(C=O)ccc1OC(=O)c1cccnc1,12.2%
4,COc1ccc(NC(=O)CCCn2c(=O)c3sccc3n(Cc3cccc(C)c3)c2=O)cc1,12.7%
5,CC1(C)Cc2ccccc2C(=NC(Cc2c[nH]c3ccccc23)C(=O)O)N1 (centres unmarked),10.9%
6,Cc1c(CCOC(=O)CC23CC4CC(CC(C4)C2)C3)sc[n+]1CC(=O)c1ccccc1.[Br-],-59.4%
7,CCOc1ccc(N2CC(C(=O)Nc3ccc(S(=O)(=O)N4CCCCC4)cc3)CC2=O)cc1 (centres unmarked),-7.53%
8,COC(=O)c1nnn(-c2nonc2N)c1CSc1nc2ccccc2s1,-0.516%
9,COc1ccccc1-c1nnc2sc(COc3ccc(Cl)cc3)nn12,-37.8%
10,N#C/C(=C/c1ccc(F)cc1)C(N)=S,36.4%
11,O=C(O)CCn1cc(C=C2C(=O)NC(=O)NC2=O)c(-c2cc3ccccc3oc2=O)n1,61.9%
12,O=C(CCc1nc(-c2ccccc2F)no1)NCCN1CCc2ccccc2C1,-50.4%
13,CN(CC(=O)Nc1cccc(F)c1)CC(=O)Nc1ccccc1[N+](=O)[O-],-15%
14,O=C(/C=C/c1ccc(Cl)cc1Cl)n1cccn1,6.36%
15,CC(C)c1ccc(NC(=O)c2cc3c(=O)n(C)c4ccccc4c3n2C)cc1,6.96%
16,c1ccc2[nH]cnc2c1,9.04%
17,Cc1cc(NC(=O)CNCC(c2ccccc2)N(C)C)c([N+](=O)[O-])cc1C (centres unmarked),-32.8%
18,Cc1ccccc1-n1c(=O)cc(N2CCc3ccccc3C2)[nH]c1=O,-17.1%
19,Cc1ccccc1OCC(=O)Nc1ccccc1-c1ccccc1,-4.81%
20,CCOC(=O)c1c(S(=O)(=O)Nc2ccc(F)cc2C)c(C)n(C)c1C,-9.73%
21,CCOC(=O)c1sc(NC(=S)NC(=O)c2ccccc2)c(C(=O)OCC)c1C,15.2%
22,O=Cc1c(NC2CCCCC2)c2ccccc2[nH]c1=O,2.88%
23,CCN(CC)CCNC(=O)Cn1nc(Cc2cccnc2)c2ccccc2c1=O,4.74%

row,Compound,"hERG current change (%, negative = inhibition) at 10uM"
1,Cc1ccccc1-n1c([C@@H]2C[C@H]2c2ccccc2)n[nH]c1=S,8.61%
2,O=C(CCS(=O)(=O)c1ccc2c(c1)NC(=O)CO2)NCCc1ccccc1,-0.677%
3,CC1=CSC2=NS(=O)(=O)CCN12,12.7%
4,CC(C)(C)n1nnnc1C(c1ccccn1)N(Cc1ccccc1)Cc1ccc(Cl)cc1 (centres unmarked),16.3%
5,CC1CCN(C(=O)/C(=C\c2ccccc2)NC(=O)c2ccccc2)CC1,-15.8%
6,CN(C)CCNc1oc(-c2ccccc2Cl)nc1S(=O)(=O)c1ccccc1,-35.7%
7,CCN(CC)C(=O)Oc1ccc(NC(C)=O)cc1,30.2%
8,CCc1cccc(CC)c1NC(=O)COC(=O)C1(C)CC1(Cl)Cl (centres unmarked),63.2%
9,COc1ccc2ccccc2c1/C=N/NC(=S)NCCN1CCOCC1,15.5%
10,NC(=O)c1ccc2c(=O)n3c(-c4cccs4)csc3nc2c1,7.83%
11,COc1ccc(NC(=O)c2ccco2)cc1N,-3.25%
12,CC(=O)c1ccc(OCC(O)CN2CCCC(C)C2)cc1.Cl (centres unmarked),-1.2%
13,COc1ccccc1N=c1c2c([N+](=O)[O-])cc([N+](=O)[O-])cc2n(O)n1-c1ccccc1OC,11.9%
14,COc1ccc(C2CC(c3ccccc3)=NN2C(=O)CN2N=NC3C(=O)N(c4cccc(F)c4)C(=O)C32)cc1 (centres unmarked),1.36%
15,CC(CN1CCOCC1)OC(=O)c1ccc(Br)cc1.Cl (centres unmarked),-5.15%
16,C=CCn1c(SCC(=O)c2ccccc2)nnc1-c1ccc2c(c1)OCO2,-21.4%
17,Cc1ccc(-c2noc(CCC(=O)Nc3ccc(C)cn3)n2)cc1,14%
18,CCOc1cc(C(=O)OCC(=O)NCc2ccco2)cc(OCC)c1OCC,6.23%
19,O=C(CCC1CCCN(C(=O)c2cncs2)C1)NCc1ccc(F)c(F)c1 (centres unmarked),-12.5%
20,CCc1sc(C(C2C(=O)CC(C)(C)CC2=O)C2C(=O)CC(C)(C)CC2=O)cc1[N+](=O)[O-],-5.07%
21,O=C(Nc1ccc(N2CCN(C(=O)c3ccccc3)CC2)cc1)c1cccs1,-15.3%
22,O=C(Cn1nnc(-c2ccc(CN3CCOCC3)cc2)n1)N1CCCc2ccccc21,-23.9%
23,CCCCN=C(N)/C(C(=O)OCC)=C(\O)c1ccc(OC)cc1,-28.1%

row,Compound,"hERG current change (%, negative = inhibition) at 10uM"
1,Cc1ccc2nc(-c3ccc(SCC(=O)Nc4ccc5c(c4)OCCO5)nc3)[nH]c2c1,-5.51%
2,Cc1cc(C)n(CCC(=O)Nc2ccc(-c3ccno3)cc2)n1,-0.648%
3,Cc1nc(S(=O)(=O)N(C)c2ccccc2)c(C#N)c(C)c1Cl,-14.3%
4,CCCCn1c(CCC)nc([N+](=O)[O-])c1Sc1ccc(Cl)cn1,-53.2%
5,Cc1ccc(S(=O)(=O)N2CCC(=O)N(CCOCc3cccc(F)c3)CC2)cc1,-9.56%
6,Cc1ccc(NC(=O)C2CCCCC2C(=O)O)cc1Cl (centres unmarked),2.46%
7,CCCc1cc(=O)n2nc(N3CCC(C(=O)N4CCN(c5cccc(OC)c5)CC4)CC3)sc2n1,-40.6%
8,CCc1nc2ccccc2[nH]1,-27.2%
9,CNC(=O)CSc1nnc(-c2cc(C)cc(C)c2)o1,-11.3%
10,CC(=O)N1c2ccc3ccccc3c2C(C)CC12CCCCC2 (centres unmarked),-0.0349%
11,Cc1ccc2cc(C)c(SCC#N)nc2c1,15%
12,CN1CCN(CCn2c(=S)[nH]c3ccccc3c2=O)CC1,6.07%
13,CCCCc1ccc(/C=C2/C(=O)ON=C2c2ccccc2)s1,10.7%
14,O=C(NC1CCCC1)C1CCCN1C(=O)Nc1ccccc1 (centres unmarked),19%
15,COc1ccc(N/C(N)=N/c2nc(C)c(Cc3ccccc3)c(=O)[nH]2)cc1,12%
16,Cc1cc(C)n(CC(=O)NC2CCCCC2C)c(=O)c1C#N (centres unmarked),-1.3%
17,COc1cc(CC(=O)N/N=C/c2ccc([N+](=O)[O-])cc2)c([N+](=O)[O-])cc1OC,-2.63%
18,O=C(O)c1ccc(Nc2ccc(Cl)c(Cl)c2)c([N+](=O)[O-])c1,20%
19,CC(C)N1C(=O)CCN(C=O)c2ccccc21,22.8%
20,Cc1cc(C)c(C(=O)c2ccc(C(=O)NC(C)(C)C)cc2)c(C)c1,13.1%
